# Measured values: the supplement of paper PMC8728848
# The other results are listed elsewhere or left out.
# B1: LgFlo1 (Saccharomyces pastorianus), B3IUA8 (protein)
# chain: SGSTQACLPVGSRKNGMNVNFYKYSLQDSTTYSDPQYMAYKYSDTKKLGSVSGQTHLSIYYGPNTAFWNTASWSSDLFGFYTTPTNVTVEMTGYFLPPQTGSYTFKFATVDDSAILSVGGSIAFECCAQEQPPITSTDFTINGIKPWDAATPTDIKGSTYMYAGYYYPIKIVYSNAKALARLPVSVVLPDGTEVNDDFEGYVYSFDDDLSQSNCTIPDPSKHTTS
# Assays:
# Assay in all cases: glycan array binding signal (z-score within array); higher = stronger binding
# Conditions in all cases: glycan notation: IUPAC condensed, linker removed
# Neu5Ac(a2-8)Neu5Ac = target: Neu5Ac(a2-8)Neu5Ac
# Method in brief: (§1)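 Glycan array data were curated from 3228 arrays in the Consortium for Functional Glycomics database and kept only where the protein sequence was available. Glycan names were converted to IUPAC-condensed notation, and columns mapping to the same glycan were averaged. The binding signal is a within-array Z-score, averaged across arrays of the same protein sequence at different concentrations or buffers and across linkers. Negative Z-scores can be read as non-binding.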
# [1] = target: Neu5Ac(a2-8)Neu5Ac(a2-3)Gal(b1-3)GalNAc(b1-4)[Neu5Ac(a2-3)]Gal(b1-4)Glc
# Method in brief: as §1
# [2] = target: Neu5Ac(a2-8)Neu5Ac(a2-3)Gal(b1-3)GalNAc(b1-4)[Neu5Ac(a2-8)Neu5Ac(a2-3)]Gal(b1-4)Glc
# Method in brief: as §1
# [3] = target: Neu5Ac(a2-8)Neu5Ac(a2-3)Gal(b1-4)Glc
# Method in brief: as §1
# [4] = target: Neu5Ac(a2-8)Neu5Ac(a2-3)Gal(b1-4)GlcNAc
# Method in brief: as §1
# [5] = target: Neu5Ac(a2-8)Neu5Ac(a2-3)[Gal(b1-3)GalNAc(b1-4)]Gal(b1-4)Glc
# Method in brief: as §1
# [6] = target: Neu5Ac(a2-8)Neu5Ac(a2-3)[GalNAc(b1-4)]Gal(b1-4)Glc
# Method in brief: as §1
# [7] = target: Neu5Ac(a2-8)Neu5Ac(a2-8)Neu5Ac
# Method in brief: as §1
# [8] = target: Neu5Ac(a2-8)Neu5Ac(a2-8)Neu5Ac(a2-3)Gal(b1-4)Glc
# Method in brief: as §1
# [9] = target: Neu5Ac(a2-8)Neu5Ac(a2-8)Neu5Ac(a2-3)[Gal(b1-3)GalNAc(b1-4)]Gal(b1-4)Glc
# Method in brief: as §1
# [10] = target: Neu5Ac(a2-8)Neu5Ac(a2-8)Neu5Ac(a2-3)[GalNAc(b1-4)]Gal(b1-4)Glc
# Method in brief: as §1
# [11] = target: Neu5Ac(a2-8)Neu5Ac(a2-8)Neu5Ac(a2-8)Neu5Ac(a2-3)[GalNAc(b1-4)]Gal(b1-4)Glc
# Method in brief: as §1
# [12] = target: Neu5Ac(a2-8)Neu5Gc(a2-3)Gal(b1-4)GlcNAc
# Method in brief: as §1
# [13] = target: Neu5Ac(b2-6)Gal(b1-4)GlcNAc
# Method in brief: as §1
# Neu5Ac(b2-6)GalNAc = target: Neu5Ac(b2-6)GalNAc
# Method in brief: as §1
# [14] = target: Neu5Ac9Ac(a2-3)Gal(b1-3)GlcNAc
# Method in brief: as §1
# [15] = target: Neu5Ac9Ac(a2-3)Gal(b1-4)GlcNAc
# Method in brief: as §1
# [16] = target: Neu5Ac9Ac(a2-6)Gal(b1-4)GlcNAc
# Method in brief: as §1
# [17] = target: Neu5Gc(a2-3)Gal(b1-3)GlcNAc
# Method in brief: as §1
# [18] = target: Neu5Gc(a2-3)Gal(b1-3)[Fuc(a1-4)]GlcNAc
# Method in brief: as §1
# Neu5Gc(a2-3)Gal(b1-4)Glc = target: Neu5Gc(a2-3)Gal(b1-4)Glc
# Method in brief: as §1
# [19] = target: Neu5Gc(a2-3)Gal(b1-4)GlcNAc
# Method in brief: as §1
# [20] = target: Neu5Gc(a2-3)Gal(b1-4)GlcNAc(b1-3)Gal(b1-4)GlcNAc(b1-2)Man(a1-3)[Neu5Gc(a2-3)Gal(b1-4)GlcNAc(b1-3)Gal(b1-4)GlcNAc(b1-2)Man(a1-6)]Man(b1-4)GlcNAc(b1-4)GlcNAc
# Method in brief: as §1
# [21] = target: Neu5Gc(a2-3)Gal(b1-4)[Fuc(a1-3)]GlcNAc
# Method in brief: as §1
# [22] = target: Neu5Gc(a2-6)Gal(b1-4)GlcNAc
# Method in brief: as §1
# Neu5Gc(a2-6)GalNAc = target: Neu5Gc(a2-6)GalNAc
# Method in brief: as §1
# [23] = target: Neu5Gc(a2-8)Neu5Ac(a2-3)Gal(b1-4)GlcNAc
# Method in brief: as §1
# [24] = target: Neu5Gc(a2-8)Neu5Gc(a2-3)Gal(b1-4)GlcNAc
# Method in brief: as §1
# [25] = target: Neu5Gc(a2-8)Neu5Gc(a2-3)Gal(b1-4)GlcNAc(b1-3)Gal(b1-4)GlcNAc
# Method in brief: as §1
# [26] = target: Neu5Gc(a2-8)Neu5Gc(a2-6)Gal(b1-4)GlcNAc
# Method in brief: as §1
# [27] = target: Neu5Gc(b2-6)Gal(b1-4)GlcNAc
# Method in brief: as §1
binder,measurement,setting,value
B1,glycan array binding signal (z-score),Neu5Ac(a2-8)Neu5Ac,-0.117
same,glycan array binding signal (z-score),[1],-0.023
same,glycan array binding signal (z-score),[2],0.215
same,glycan array binding signal (z-score),[3],-0.354
same,glycan array binding signal (z-score),[4],-0.232
same,glycan array binding signal (z-score),[5],-0.149
same,glycan array binding signal (z-score),[6],-0.161
same,glycan array binding signal (z-score),[7],-0.232
same,glycan array binding signal (z-score),[8],-0.25
same,glycan array binding signal (z-score),[9],0.076
same,glycan array binding signal (z-score),[10],-0.074
same,glycan array binding signal (z-score),[11],0.133
same,glycan array binding signal (z-score),[12],-0.104
same,glycan array binding signal (z-score),[13],-0.214
same,glycan array binding signal (z-score),Neu5Ac(b2-6)GalNAc,-0.069
same,glycan array binding signal (z-score),[14],-0.251
same,glycan array binding signal (z-score),[15],0.32
same,glycan array binding signal (z-score),[16],-0.397
same,glycan array binding signal (z-score),[17],-0.425
same,glycan array binding signal (z-score),[18],-0.112
same,glycan array binding signal (z-score),Neu5Gc(a2-3)Gal(b1-4)Glc,0.165
same,glycan array binding signal (z-score),[19],0.216
same,glycan array binding signal (z-score),[20],-0.305
same,glycan array binding signal (z-score),[21],-0.261
same,glycan array binding signal (z-score),[22],0.383
same,glycan array binding signal (z-score),Neu5Gc(a2-6)GalNAc,0.16
same,glycan array binding signal (z-score),[23],-0.251
same,glycan array binding signal (z-score),[24],-0.265
same,glycan array binding signal (z-score),[25],-0.163
same,glycan array binding signal (z-score),[26],-0.346
same,glycan array binding signal (z-score),[27],-0.24
